The whole screen tested about 45,000 compounds, of which about 65 (0.1%) were called active. The call rests on the fitted dose curve; in most records, active means well fitted activation curve with a large enough effect; inconclusive means small, poorly fitted or top-dose-only effect; inactive means no such curve, though single readings can be large or run the other way. The list shows a part of the results.
biological target: Galactocerebrosidase (Homo sapiens) (UniProt P54803); test: A Novel Cell-Based Assay to Identify Small Molecules for B -Galactocerebrosidase; settings: 145M-Twi-hGALC-G270D cells (Twitcher mouse brain line with human GALC G270D), HMU-beta-Gal fluorescence, 48 h; series mostly up to 57.5 µM; activation: at the top concentration; further: 0% is about no effect; nearly all actives have a fitted effect of over 65% in size
Chain of UniProt P54803 (P54803 whole entry, looked up): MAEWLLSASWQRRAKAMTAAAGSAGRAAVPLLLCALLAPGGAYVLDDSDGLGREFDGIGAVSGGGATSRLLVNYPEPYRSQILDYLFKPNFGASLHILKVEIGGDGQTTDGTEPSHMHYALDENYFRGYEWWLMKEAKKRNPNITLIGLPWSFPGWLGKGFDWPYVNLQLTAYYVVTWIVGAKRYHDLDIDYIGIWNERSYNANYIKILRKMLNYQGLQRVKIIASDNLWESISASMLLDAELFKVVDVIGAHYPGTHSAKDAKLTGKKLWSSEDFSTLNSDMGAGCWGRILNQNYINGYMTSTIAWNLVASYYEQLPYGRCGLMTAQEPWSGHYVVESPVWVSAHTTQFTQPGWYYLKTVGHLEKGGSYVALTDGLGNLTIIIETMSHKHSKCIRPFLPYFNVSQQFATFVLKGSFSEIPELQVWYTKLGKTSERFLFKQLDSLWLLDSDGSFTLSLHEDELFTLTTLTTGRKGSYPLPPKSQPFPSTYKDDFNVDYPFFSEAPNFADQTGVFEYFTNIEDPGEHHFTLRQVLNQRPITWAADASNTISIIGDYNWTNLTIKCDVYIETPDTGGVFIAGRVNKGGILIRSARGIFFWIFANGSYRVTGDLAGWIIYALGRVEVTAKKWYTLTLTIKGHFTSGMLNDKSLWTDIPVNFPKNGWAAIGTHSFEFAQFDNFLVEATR
How it was run: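 Fluorescence readout: HMU-β-gal cleavage by mutant GALC (0.1 mM final, citrate/phosphate pH 5.2 with 1 mg/mL taurocholate), stopped with carbonate/bicarbonate plus Triton X-100. Cells: murine Twitcher 145M-Twi expressing human G270D GALC; qHTS for activators.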

activation, inactive:
CCCCS(=O)(=O)c1oc(-c2ccc(F)cc2)nc1S(=O)(=O)c1ccccc1 -20.2%, COc1ccc(CCN2CC(C(=O)NCCc3ccccc3)CC2=O)cc1OC (configuration not stated) -23.6%, COc1ccc(OC)c(/C=C(\C#N)c2nc3ccccc3c(=O)[nH]2)c1 -10.6%, O=C(CCC(=O)c1ccccc1)Nc1ccc(F)c(Cl)c1 -15%, Cc1sc2c(c1C)c(=O)n(CCc1ccccc1)c(=O)n2Cc1ccc(F)cc1 -15.1%, O=S(=O)(NCCS(=O)(=O)N1CCN(c2ccccc2)CC1)c1ccc(Cl)cc1 -11%, Cc1cccc(NC(=O)C2CCCN(S(=O)(=O)c3ccc4c(c3)oc(=O)n4C)C2)c1 (configuration not stated) -0.402%, Cc1ccc(C)c(S(=O)(=O)NCCc2csc(-c3ccc(Cl)cc3)n2)c1 -21.8%, CC(=O)c1ccc(N2CCN(C(=O)c3cc4ccc5cccnc5c4[nH]3)CC2)cc1 -17.5%, CCn1c(=O)n(-c2cccc(Cl)c2)c(=O)c2sc3ccccc3c21 3.41%, CCc1nn(CC(=O)N2CCN(c3ccc(Cl)cc3)CC2)c(=O)c2cc3occc3n12 -14.5%, O=C(Nc1ccc(Cl)cc1)c1cc2nc(-c3ccc4c(c3)OCO4)cc(C(F)(F)F)n2n1 -18.4%, O=C(c1cnc(N2CCCCC2)c2ccccc12)N1CCN(c2ccc(Cl)cc2)CC1 -0.866%, COc1ccc(C(=O)Nc2ccccc2-c2nc(-c3ccc(OC)cc3)no2)cc1 2.93%, CCOC(=O)c1ccc2c(c1)[C@@H]1C=CC[C@@H]1[C@H](c1cccc(OC)c1OC)N2 -9.3%, Cc1cc(C)c2sc(N(Cc3cccnc3)C(=O)CCOc3ccccc3)nc2c1 -3.98%, CCCC(=O)C1=C(c2cccc(OC)c2)N(C(=O)CCC)n2c(C)nnc2S1 -0.224%, CCCN1C(=O)C(O)(CC(=O)c2ccc(C(C)C)cc2)c2ccccc21 (configuration not stated) -12.6%, COC(=O)c1sc2c(c1C)c(=O)n(-c1ccccc1)c(=O)n2CC(=O)Nc1cccc(C)c1 -0.902%, CCc1ccccc1NS(=O)(=O)c1ccc2c(c1)CCCN2C(=O)C1CCC1 -1.9%, CC(C)NC(=O)c1ccc2c(c1)N(Cc1cccc(Cl)c1)C(=O)c1ccccc1S2=O (configuration not stated) -15.3%, Cc1nn2c(=O)cc(COC(=O)c3ccccc3NC(=O)c3cccs3)nc2s1 -6.95%, COc1ccc(NC(=O)CN2CCN(Cc3ccccc3Cl)S2(=O)=O)cc1Cl -8.65%, COc1cc(OC)c(NC(=O)N2CCC(CN3CCOCC3)CC2)cc1Cl -7.81%, CN1CCN(Cc2c(O)ccc3cc(-c4ccc(Cl)cc4)c(=O)oc23)CC1 -21.3%, CCN(C(=O)Cn1c(=O)oc2cc(S(=O)(=O)N3CCCCC3)ccc21)c1ccccc1 -8.19%, CCc1cccc(NC(=O)CCc2c(C)nc3c(-c4ccccc4)c(C)nn3c2C)c1 -6.24%, O=c1[nH]sc2cc(Cl)ccc12 -11.4%, COc1ccc(N2CCN(C(=O)C3Cc4ccccc4N3C(C)=O)CC2)cc1 (configuration not stated) -15.5%, COc1cccc(CNC(=O)c2c(C)oc3ncnc(N4CCOCC4)c23)c1 0.325%, CCOc1cc(CNC(=O)C2CCN(c3nc4ccccc4[nH]3)CC2)cc(OCC)c1OCC 0.452%, COc1cccc(CC(=O)Nc2ccc(-c3nc4ccccc4s3)cc2Cl)c1 -3.39%, CCN(CC)CCCC(C)Nc1ccnc2cc(Cl)ccc12 (configuration not stated) -32.9% [at 23.8 µM], Cc1cc(C)cc(N2CCn3c2nc2c3c(=O)n(C/C=C/c3ccccc3)c(=O)n2C)c1 -0.912%, Cc1ccc2nc(-c3ccc(F)cc3)c(NC(C)(C)CC(C)(C)C)n2c1 -31.9%, Cc1c(Cl)cccc1NC(=O)CSc1ccc(-c2ccccn2)nn1 5.09%, CS(=O)(=O)c1ccc([C@@H](O)[C@@H](CF)NC(=O)C(Cl)Cl)cc1 -8.22%, Cc1ccc(C)c(NC(=O)CCOc2ccccc2)c1 -3.56%, COc1ccc(C)cc1NC(=O)C(=O)NCC(c1cccnc1)N1CCN(c2ccccc2F)CC1 (configuration not stated) -0.758%, O=C(NCc1cccc(Cl)c1)c1cc2c(s1)-c1ccccc1SC2 -1.76%, O=C(Cn1c(=O)n(-c2ccc(Cl)cc2)c(=O)c2c3c(sc21)CCCCC3)Nc1cccc(Cl)c1 -12.3%, Cc1ccc2cccc(NC(=O)c3cccc4c(Br)cccc34)c2n1 -10.3%, CCCn1cc(S(=O)(=O)c2ccc(C)c(C)c2)c(=O)c2cc(F)c(N3CCC(C)CC3)cc21 -10.3%, CCn1c(=O)n(-c2ccc3c(c2)OCO3)c2nc(-c3cccc(OC)c3OC)nc(C(N)=O)c21 -6.01%, COc1ccc(N2CCN(C(=O)c3ccc4c(c3)N(Cc3cccc(Cl)c3)C(=O)c3ccccc3S4(=O)=O)CC2)cc1 -14.4%, Cc1cc(C)c2nc(N3CCCC(C(=O)NCc4ccccc4F)C3)sc2c1 (configuration not stated) -14%, CCOC(=O)CC(NC(=O)c1cc2c(=O)n3cccc(C)c3nc2s1)c1ccc(OCC)c(OC)c1 (configuration not stated) -7.4%, CCc1ccccc1NC(=O)Cn1c(=O)n(-c2cccc(C)c2)c(=O)c2c1c1cc(OC)ccc1n2C -9.8%, CC(C)OCCCNC(=O)Cc1ccc(NC(=O)N2CCCCc3ccccc32)cc1 -10.9%, CCOc1ccccc1N(C)C(=O)c1cc2c(s1)-c1ccccc1OC2 -15.4%, COc1cccc(NC(=O)C2CCN(S(=O)(=O)c3c(C)noc3C)CC2)c1 -11%, Cc1ccc(C(=O)COC(=O)c2cc(-c3cccs3)nc3ccccc23)cc1 -5.62%, CCc1cccc(NC(=O)Nc2cn(C)c(=O)c3ccccc23)c1 -13.7%, Cc1ccc(S(=O)(=O)c2cn(CC(=O)Nc3ccc(F)cc3)c3cc4c(cc3c2=O)OCO4)cc1 -12.1%, COc1ccc(-c2noc(CCC(=O)Nc3cccc(C)c3C)n2)cc1OC -17.2%, Cc1ccc(NC(=O)Cn2c(=O)n(CC(=O)NCCc3ccccc3)c(=O)c3ccccc32)cc1C -13.9%, CCCCc1nc(SCC(=O)Nc2ccc(S(N)(=O)=O)cc2)n[nH]1 -3.11%, Cc1nn2c(C)c(C(=O)NCc3ccc(OC(C)C)cc3)cnc2c1-c1ccc(F)cc1 -16.5%, COc1ccc(Cn2ccnc2SCC(=O)Nc2nnc(C)s2)cc1 -10.5%, COC(=O)c1ccc(NC(=O)CN(C)S(=O)(=O)c2ccc(Br)s2)cc1 -1.78%, Cc1ccc2nc(-c3ccc(Cl)s3)c(Nc3ccc4c(c3)OCCO4)n2c1 -31.2%, COc1cccc(-n2c(SCc3ccc(F)cc3)nc3c([nH]c4ccccc43)c2=O)c1 -33.9%
